In general, AC50 refers to the concentration at which the activity in the assay is half-maximal.

Assay [1] can be described thus: qHTS Assay for Lipid Storage Modulators (AID 1519). The following applies: Drosophila S3 cells, BODIPY lipid droplet/cell ratio, laser cytometry, cells loaded with oleic acid. Summed up:
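Cells seeded at 5,000 per well were treated with compounds over a concentration series and loaded with oleic acid (400 uM, as added). Lipid droplet fluorescence (488 nm excitation, 500-530 nm channel) was read by laser-scanning cytometry and normalized to 20 uM Triacsin C.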

The nature of assay [2]: qHTS Validation Assay to Find Inhibitors of Chronic Active B-Cell Receptor Signaling (AID 485345). The following applies: ABC-DLBCL cells, chronic BCR signaling reporter. Summed up:
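TMD8 ABC-DLBCL cells stably carrying doxycycline-inducible IkappaBalpha–green luciferase fusion plus unfused red luciferase; compounds 46 uM to 3 nM, 4 h at 37C with doxycycline. Corrected green/red luminescence ratio normalized to 10 uM MG-132 and basal cell wells; curves fitted.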
In general terms: Quantitative high-throughput screening tests each substance at several concentrations.

Assay [3] can be described thus: qHTS Assay for Modulators of Human Peripheral Myelin Protein 22 (PMP22) Expression/Activity (AID 1967). The following applies: Cell-based PMP22 reporter, dual-color luciferase ratio. Summed up: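 Luminescence ratio of Pmp22 promoter-driven green luciferase to EF-alpha-driven red luciferase, in engineered mouse MSC80 Schwann cells, served as read-out. Compounds were incubated 24h; untreated cells defined 0% Activity; curves were classified by r2, magnitude and activity.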

The nature of assay [4]: qHTS assay for small molecule antagonists of peroxisome proliferator-activated receptor gamma signaling (AID 588537). The following applies: HEK293 PPARg-UAS-bla, beta-lactamase ratio, antagonist mode; measured here: W460 blue channel. The method, boiled down: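 Read-out: CCF4 fluorescence (ex 405, em 460/530 nm) after 2 h at RT. Cells were HEK293 carrying a UAS-bla reporter and treated 16 h at 37 C with compound plus rosiglitazone (50 nM final). Normalized to rosiglitazone and DMSO.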

Assay [5] is described as follows: Nrf2 qHTS screen for inhibitors: Validation (AID 493153). The following applies: A549 ARE-Fluc reporter, 18-24 h; AC50: CellTiter-Fluor fluorescence read, measured here: cytotoxicity CellTiter-Fluor AC50; viability change: measured here: cytotoxicity max response. The method, boiled down:
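In this counterscreened reporter format, each well gives two signals: CellTiter-Fluor fluorescence for cytotoxicity and ARE-luciferase luminescence for Nrf2 function. A549 ARE_Fluc cells in 5% FBS OPTI-MEM were exposed to compound titrations for 18-24 h.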

[6] abbreviates: measured here: cell count channel max response.
Where [7] appears, read: measured here: cell number channel AC50.
The mark [8] stands for this setting: measured here: lipid (BODIPY) channel AC50.
The mark [9] stands for this setting: measured here: lipid channel max response.
[10] abbreviates: measured here: CBR control luciferase (viability counter).
Where [11] appears, read: measured here: green reporter channel AC50, mouse Pmp22 promoter in mouse Schwann cells.
[12] abbreviates: measured here: red reporter channel AC50, EF-alpha promoter control reporter in MSC80 mouse Schwann cells.
Where [13] appears, read: measured here: CBG/CBR ratio read-out.

The structures appear in SMILES notation. “And” between values parts separate entries of the source, which are not always exact repeats. Equal entries are not always repeated. Some of the results follow. Shown are side measurements of this screen, not its main read-out; they come without a call. Most of these compounds were active or inconclusive in the main read-out, so they are no random draw. For some of these results: Words in brackets tell the shape of the fitted curve; partial curves, single points and poor fits give uncertain potencies.
Tags tell the direction and shape of the fitted curve.

Regarding `Nc1ncnc2c1ncn2[C@@H]1O[C@H](CO)[C@@H](O)[C@H]1O`, the results for the max response in assay [1] (setting [6]) and in assay [1] (setting [9]) were 57.4% and 72.3%, respectively. The AC50 in assay [1] (setting [7]) is 31.6 µM [rising, partial curve, poor fit]; in assay [1] (setting [8]) it was 28.2 µM [rising, partial curve, poor fit]; in assay [2] (setting [10]) it was 7.31 µM [rising, partial curve].
As for `CC(C)(C=O)Cc1cc(C(C)(C)C)c(O)c(C(C)(C)C)c1`, the max response in assay [1] (setting [6]) is 16.7% and -75.4%; in assay [1] (setting [9]), 6.52% and -75.8%. In addition, the AC50 is 7.94 µM [rising, partial curve, poor fit] and 44.7 µM [falling, partial curve, poor fit] in assay [1] (setting [7]); 6.31 µM [rising, full curve, poor fit] and 44.7 µM [falling, partial curve, poor fit] in assay [1] (setting [8]); 18.4 µM [rising, single point] in assay [2] (setting [10]).
`CN(C)c1cc2c(Nc3ccc4c(cnn4Cc4ccccc4)c3)ncnc2cn1`: the max response was -98.5% in assay [1] (setting [6]) and -109% in assay [1] (setting [9]). For the same compound, the AC50 in assay [1] (setting [7]) is 20 µM [falling, partial curve, poor fit]; in assay [1] (setting [8]), 20 µM [falling, partial curve, poor fit]; in assay [3] (setting [11]) it was 26.9 µM [falling, full curve]; in assay [3] (setting [12]), 33.8 µM [falling, full curve]; in assay [2] (setting [13]) it was 18.4 µM [falling, partial curve]; in assay [2] (setting [10]), 29.1 µM [falling, single point].
`N=C(N)SCCN`: the max response in assay [1] (setting [6]) is 66%; in assay [1] (setting [9]) it was 67.1%. The AC50 in assay [1] (setting [7]) was 39.8 µM [rising, partial curve, poor fit]; in assay [1] (setting [8]), 39.8 µM [rising, partial curve, poor fit]; in assay [2] (setting [10]), 0.0164 µM [rising, full curve, poor fit].
`C[C@@H](NC(=O)/C(C#N)=C/c1ccc(O)c(O)c1)c1ccccc1`: the max response in assay [1] (setting [6]) was 34.7% and -41.4%; in assay [1] (setting [9]) it was -6.42% and -51.5%. For the same compound, the concentration at half-maximal activity (AC50) in assay [1] (setting [7]) was 14.1 µM [rising, partial curve, poor fit] and 5.01 nM [falling, full curve, poor fit]; in assay [1] (setting [8]), 0.00501 µM [falling, full curve, poor fit]; in assay [3] (setting [12]), 30.1 µM [falling, full curve]; in assay [2] (setting [13]), 14.6 µM [falling, partial curve].
Regarding `N[C@@H](Cc1c[nH]c2ccc(O)cc12)C(=O)O`, the values for the max response in assay [1] (setting [6]) and in assay [1] (setting [9]) were 29.4% and 31.3%, respectively. Moreover, the half-maximal activity concentration (AC50) in assay [1] (setting [7]) is 17.8 µM [falling, partial curve, poor fit]; in assay [1] (setting [8]) it was 11.2 µM [falling, partial curve, poor fit]; in assay [3] (setting [12]), 84.9 µM [falling, single point]; in assay [2] (setting [10]) it was 32.6 µM [rising, single point].
In the case of `CC(C)NCC(O)COc1cccc2ccccc12` (centres undefined), the max response is -5.2% in assay [1] (setting [6]) and -4.22% in assay [1] (setting [9]). Also, the AC50 in assay [1] (setting [7]) was 0.631 µM [falling, full curve, poor fit]; in assay [1] (setting [8]) it was 0.631 µM [falling, full curve, poor fit]; in assay [3] (setting [11]), 75.7 µM [falling, partial curve]; in assay [3] (setting [12]) it was 84.9 µM [falling, single point]; in assay [4] it was 0.0141 µM [falling, full curve, poor fit].
With `COc1ccc(/C=C/C(=O)Nc2ccccc2C(=O)O)cc1OC`, the max response in assay [1] (setting [6]) was 57.1%; in assay [1] (setting [9]) it was 57.8%. For the same compound, the concentration at half-maximal activity (AC50) in assay [1] (setting [7]) is 44.7 µM [rising, partial curve, poor fit]; in assay [1] (setting [8]), 44.7 µM [rising, partial curve, poor fit]; in assay [3] (setting [12]) it was 7.57 µM [falling, full curve]; in assay [2] (setting [13]) it was 4.11 µM [falling, partial curve]; in assay [2] (setting [10]), 2.06 µM [falling, full curve]. The viability change in assay [5] is -0.88%.
On to `O=c1[nH]c2cc(Cl)ccc2c(O)c1-c1ccc(Oc2ccccc2)cc1`, for which the max response worked out at 52.4% in assay [1] (setting [6]) and 53.2% in assay [1] (setting [9]). In addition, the half-maximal activity concentration (AC50) in assay [1] (setting [7]) was 31.6 µM [rising, partial curve, poor fit]; in assay [1] (setting [8]) it was 31.6 µM [rising, partial curve, poor fit]; in assay [2] (setting [10]), 18.4 µM [falling, single point]. In addition, the viability change in assay [5] is -9.66%.
For the compound `NCCNS(=O)(=O)c1cccc2c(Cl)cccc12`, the max response in assay [1] (setting [6]) worked out at 50.2%; in assay [1] (setting [9]) it was 67.3%. Further, the AC50 in assay [1] (setting [7]) was 14.1 µM [rising, partial curve, poor fit]; in assay [1] (setting [8]), 14.1 µM [rising, partial curve, poor fit]; in assay [3] (setting [11]), 60.1 µM [falling, partial curve]; in assay [3] (setting [12]), 67.5 µM [falling, partial curve]; in assay [2] (setting [13]), 14.6 µM [falling, single point]; in assay [2] (setting [10]) it was 8.2 µM [falling, single point].

The values are drawn from PubChem BioAssay (NCATS).
